# Data from patent US8592383B2, “Cycloalkyl-fused tetrahydroquinolines as CRTH2 receptor modulators” (Merck Sharp & Dohme Corp., priority 2011, dated 2013).
# Molecular target: T1, hCRTH2 (Homo sapiens, UniProt Q9Y5Y4)
# T1 sequence (Q9Y5Y4 1-395): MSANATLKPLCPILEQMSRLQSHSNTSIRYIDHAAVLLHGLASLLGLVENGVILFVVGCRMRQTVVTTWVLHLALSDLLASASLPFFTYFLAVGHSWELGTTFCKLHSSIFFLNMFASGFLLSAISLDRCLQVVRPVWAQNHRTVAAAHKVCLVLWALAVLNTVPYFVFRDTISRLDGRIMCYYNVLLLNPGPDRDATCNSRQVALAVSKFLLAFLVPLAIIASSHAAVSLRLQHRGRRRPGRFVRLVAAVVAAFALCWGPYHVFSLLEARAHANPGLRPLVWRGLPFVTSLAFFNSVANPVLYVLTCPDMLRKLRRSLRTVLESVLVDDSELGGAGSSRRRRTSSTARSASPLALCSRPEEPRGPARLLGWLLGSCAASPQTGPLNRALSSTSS
# Experiment: biochemical
# Conditions: Ki (nM), Table A; Radioligand Binding Assay A, [3H]PGD2, HEK-hCRTH2 membranes
row,Ki [nM],Compound
1,201 to 7500,"O=C(O)CCC(=O)N(C1CC1)C1c2cc(F)ccc2N(C(=O)OCc2cccc(F)c2)C2CCC21 (single isomer, unassigned) [compound 102, 3-[(3-fluorophenyl)methyl] cis, cis-[(3-carboxy-1-oxopropyl)cyclopropylamino]-6-fluoro-2,2a,8,8a-tetrahydrocyclobuta[b] quinoline-3(1H)-carboxylate]"
2,5.1 to 20,"O=C(O)CCC(=O)N(C1CC1)[C@@H]1c2cc(Cl)ccc2N(C(=O)OCc2ccccc2)[C@@H]2CC[C@@H]21 (single isomer, unassigned) [compound 107, 4-((cis, cis-3-(benzyloxycarbonyl)-6-chloro-1,2,2a,3,8,8a-hexahydrocyclobuta[b]quinolin-8-yl)(cyclopropyl)amino)-4-oxobutanoic acid]"
3,5.1 to 20,"O=C(O)CCCN(C1CC1)[C@@H]1c2cc(Cl)ccc2N(C(=O)OCc2ccccc2)[C@@H]2CC[C@@H]21 (single isomer, unassigned) [compound 108, 4-((cis, cis-3-(benzyloxycarbonyl)-6-chloro-1,2,2a,3,8,8a-hexahydrocyclobuta[b]quinolin-8-yl)(cyclopropyl)amino) butanoic acid]"
4,20.1 to 200,"CCN(C(=O)[C@H](C)CC(=O)O)C1c2ccccc2N(C(=O)OCc2ccccc2)C2CCC12 (single isomer, unassigned) [compound 109]"
5,201 to 7500,"O=C(O)CCC(=O)N(CCO)C1c2ccccc2N(C(=O)OCc2ccccc2)C2CCC12 (single isomer, unassigned) [compound 110, 3-(phenylmethyl) cis, cis-[(3-carboxy-1-oxopropyl)(2-hydroxyethyl)amino]-2,2a,8,8a-tetrahydrocyclobuta[b] quinoline-3(1H)-carboxylate]"
6,5.1 to 20,"[2H]C1(N(C(=O)CCC(=O)O)C2CC2)c2ccccc2N(C(=O)OCc2ccccc2)C2CCC21 (single isomer, unassigned) [compound 111, 3-(phenylmethyl) deuterated-cis, cis-[(3-carboxy-1-oxopropyl)cyclopropylamino]-2,2a,8,8a-tetrahydrocyclobuta[b] quinoline-3(1H)-carboxylate-(8D)]"
7,20.1 to 200,"O=C(O)CCC(=O)N(C1CC1)C1c2ccccc2N(C(=O)OCc2ccc(OC(F)(F)F)c(F)c2)C2CCCC21 (single isomer, unassigned) [compound 112, 4-[[3-fluoro-4-(trifluoromethoxy)phenyl]methyl] cis, cis-[(3-carboxy-1-oxopropyl)cyclopropylamino]-1,2,3,3a,9,9a-hexahydro-4H-cyclopenta[b]quinoline-4-carboxylate]"
8,20.1 to 200,"O=C(O)CCC(=O)N(C1CC1)C1c2ccccc2N(C(=O)OCc2cccs2)C2CCCC21 (single isomer, unassigned) [compound 114, 4-(2-thienylmethyl) cis, cis-[(3-carboxy-1-oxopropyl)cyclopropylamino]-1,2,3,3a,9,9a-hexahydro-4H-cyclopenta[b]quinoline-4-carboxylate]"
9,201 to 7500,"O=C(O)CCC(=O)N(C1CC1)C1c2cc(F)c(F)cc2N(C(=O)OCc2ccccc2)C2CCC21 (single isomer, unassigned) [compound 115, 3-(phenylmethyl) 8-[(3-carboxy-1-oxopropyl)cyclopropylamino]-5,6-difluoro-2,2a,8,8a-tetrahydro-cyclobuta[b]quinoline-3(1H)-carboxylate]"
10,1 to 5,"O=C(O)CCC(=O)N(C1CC1)C1c2cc(F)c(F)cc2N(C(=O)OCc2ccccc2)C2CCC21 (single isomer, unassigned) [compound 116, 3-(phenylmethyl) 8-[(3-carboxy-1-oxopropyl)cyclopropylamino]-5,6-difluoro-2,2a,8,8a-tetrahydro-cyclobuta[b]quinoline-3(1H)-carboxylate]"
11,1 to 5,"O=C(O)CCCN(C1CC1)C1c2cc(F)c(F)cc2N(C(=O)OCc2ccccc2)C2CCC21 (single isomer, unassigned) [compound 117, 4-((cis, cis-3-(benzyloxycarbonyl)-5,6-difluoro-1,2,2a,3,8,8a-hexahyclrocyclobuta[b]quinolin-8-yl)(cyclopropyl)amino) butanoic acid]"
12,5.1 to 20,"O=C(O)CCC(=O)N(C1CC1)C1c2cc(F)c(Cl)cc2N(C(=O)OCc2ccccc2)C2CCCC21 (single isomer, unassigned) [compound 118, 4-(phenylmethyl) cis, cis-[(3-carboxy-1-oxopropyl)cyclopropylamino]-6-chloro-7-fluoro-1,2,3,3a,9,9a-hexahydro-4H-cyclopenta[b]quinoline-4-carboxylate]"
13,1 to 5,"O=C(O)CCC(=O)N(C1CC1)C1c2cc(Cl)c(Cl)cc2N(C(=O)OCc2ccccc2)C2CCC21 (single isomer, unassigned) [compound 119, 3-(phenylmethyl) cis,cis-8-[(3-carboxy-1-oxopropyl)cyclopropylamino]-5,6-dichloro-2,2a,8,8a-tetrahydrocyclobuta[b] quinoline-3(1H)-carboxylate]"
14,201 to 7500,"O=C(O)CCC(=O)N(C1CC1)C1c2cc(Cl)c(Cl)cc2N(C(=O)OCc2ccccc2)C2CCC21 (single isomer, unassigned) [compound 120, 3-(phenylmethyl) cis,cis-8-[(3-carboxy-1-oxopropyl)cyclopropylamino]-5,6-dichloro-2,2a,8,8a-tetrahydrocyclobuta[b] quinoline-3(1H)-carboxylate]"
15,5.1 to 20,"[2H]C1(N(CCCC(=O)O)C2CC2)c2ccccc2N(C(=O)OCc2ccccc2)C2CCC21 (single isomer, unassigned) [compound 124, 3-(phenylmethyl) deuterated-cis,cis-8-[(3-carboxypropyl)cyclopropylamino]-2,2a,8,8a-tetrahydrocyclobuta[b] quinoline-3(1H)-carboxylate-(8D)]"
16,5.1 to 20,"O=C(O)CCCN(C1CC1)[C@H]1c2cc(F)ccc2N(C(=O)OCc2ccccc2)[C@H]2CCC[C@H]21 (single isomer, unassigned) [compound 125]"
17,5.1 to 20,"O=C(O)CCCN(C1CC1)C1c2ccccc2N(C(=O)c2ccc(F)cc2)C2CCCC21 (single isomer, unassigned) [compound 130, 4-[cyclopropyl[cis,cis-4-(4-fluorobenzoyl)-2,3,3a,4,9,9a-hexahydro-1H-cyclopenta[b]quinolin-9-yl]amino]butanoic acid]"
18,5.1 to 20,"O=C(O)CCC(=O)N(C1CC1)[C@H]1c2cc(F)ccc2N(C(=O)c2cccc(OC(F)(F)F)c2)[C@H]2CCC[C@H]21 (single isomer, unassigned) [compound 136]"
19,20.1 to 200,"CCC[C@@H](OC(=O)N1c2ccccc2C(N(C(=O)CCC(=O)O)C2CC2)C2CCCC21)c1ccccc1 (single isomer, unassigned) [compound 137]"
20,5.1 to 20,"CCC[C@H](OC(=O)N1c2ccccc2C(N(C(=O)CCC(=O)O)C2CC2)C2CCCC21)c1ccccc1 (single isomer, unassigned) [compound 138]"
21,5.1 to 20,"CC[C@H](OC(=O)N1c2ccccc2C(N(C(=O)CCC(=O)O)C2CC2)C2CCCC21)c1ccccc1 (single isomer, unassigned) [compound 139]"
22,20.1 to 200,"CC[C@@H](OC(=O)N1c2ccccc2C(N(C(=O)CCC(=O)O)C2CC2)C2CCCC21)c1ccccc1 (single isomer, unassigned) [compound 141]"
23,20.1 to 200,"O=C(O)CCC(=O)N(C1CC1)C1c2ccccc2N(C(=O)OC(c2ccccc2)C2CC2)C2CCCC21 (single isomer, unassigned) [compound 142, 4-(cyclopropylphenylmethyl) cis, cis-[(3-carboxy-1-oxopropyl)cyclopropylamino]-1,2,3,3a,9,9a-hexahydro-4H-cyclopenta[b]quinoline-4-carboxylate]"
24,1 to 5,"C[C@H](OC(=O)N1c2cc(F)ccc2C(N(C(=O)CCC(=O)O)C2CC2)C2CCCC21)c1ccccc1 (single isomer, unassigned) [compound 144]"
25,5.1 to 20,"C[C@@H](OC(=O)N1c2cc(F)ccc2C(N(C(=O)CCC(=O)O)C2CC2)C2CCCC21)c1ccccc1 (single isomer, unassigned) [compound 145]"
26,1 to 5,"C[C@H](OC(=O)N1c2cc(F)ccc2C(N(C(=O)CCC(=O)O)C2CC2)C2CCCC21)c1ccc(F)cc1 (single isomer, unassigned) [compound 146]"
27,5.1 to 20,"O=C(O)CCC(=O)N(C1CC1)C1c2ccc(F)cc2N(C(=O)OCc2ccccn2)C2CCCC21 (single isomer, unassigned) [compound 148, 4-(2-pyridinylmethyl) cis, cis-[(3-carboxy-1-oxopropyl)cyclopropylamino]-6-fluoro-1,2,3,3a,9,9a-hexahydro-4H-cyclopenta[b]quinoline-4-carboxylate]"
28,1 to 5,"O=C(O)CCC(=O)N(C1CC1)C1c2ccc(F)cc2N(C(=O)OC2Cc3ccccc3C2)C2CCCC21 (single isomer, unassigned) [compound 149, 4-(2,3-dihydro-1H-inden-2-yl) cis, cis-[(3-carboxy-1-oxopropyl)cyclopropylamino]-6-fluoro-1,2,3,3a,9,9a-hexahydro-4H-cyclopenta[b]quinoline-4-carboxylate]"

row,Compound,Ki [nM]
1,"O=C(O)CCC(=O)N(C1CC1)C1c2cc(F)ccc2N(C(=O)c2ccc(OC(F)(F)F)cc2)C2CCCC21 (single isomer, unassigned) [compound 134, 4-[cyclopropyl[cis, cis-7-fluoro-2,3,3a,4,9,9a-hexahydro-4-[4-(trifluoromethoxy)benzoyl]-1H-cyclopenta[b]quinolin-9-yl]amino]-4-oxobutanoic acid]",201 to 7500
